# Out of some 310,000 compounds screened, about 14,000 (4.5%) showed an effect of 50% or more. Effects have a minus sign here. Some of the results follow.
# Biological target: human ether-à-go-go-related gene (hERG) potassium channel (human, UniProt Q12809)
# Experiment: primary screen, population patch clamp on CHO cells stably expressing hERG
# 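Note: peak tail current of the secondary pulse compared with the same well before compound.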
# human ether-à-go-go-related gene (hERG) potassium channel, sequence (Q12809 whole entry, looked up): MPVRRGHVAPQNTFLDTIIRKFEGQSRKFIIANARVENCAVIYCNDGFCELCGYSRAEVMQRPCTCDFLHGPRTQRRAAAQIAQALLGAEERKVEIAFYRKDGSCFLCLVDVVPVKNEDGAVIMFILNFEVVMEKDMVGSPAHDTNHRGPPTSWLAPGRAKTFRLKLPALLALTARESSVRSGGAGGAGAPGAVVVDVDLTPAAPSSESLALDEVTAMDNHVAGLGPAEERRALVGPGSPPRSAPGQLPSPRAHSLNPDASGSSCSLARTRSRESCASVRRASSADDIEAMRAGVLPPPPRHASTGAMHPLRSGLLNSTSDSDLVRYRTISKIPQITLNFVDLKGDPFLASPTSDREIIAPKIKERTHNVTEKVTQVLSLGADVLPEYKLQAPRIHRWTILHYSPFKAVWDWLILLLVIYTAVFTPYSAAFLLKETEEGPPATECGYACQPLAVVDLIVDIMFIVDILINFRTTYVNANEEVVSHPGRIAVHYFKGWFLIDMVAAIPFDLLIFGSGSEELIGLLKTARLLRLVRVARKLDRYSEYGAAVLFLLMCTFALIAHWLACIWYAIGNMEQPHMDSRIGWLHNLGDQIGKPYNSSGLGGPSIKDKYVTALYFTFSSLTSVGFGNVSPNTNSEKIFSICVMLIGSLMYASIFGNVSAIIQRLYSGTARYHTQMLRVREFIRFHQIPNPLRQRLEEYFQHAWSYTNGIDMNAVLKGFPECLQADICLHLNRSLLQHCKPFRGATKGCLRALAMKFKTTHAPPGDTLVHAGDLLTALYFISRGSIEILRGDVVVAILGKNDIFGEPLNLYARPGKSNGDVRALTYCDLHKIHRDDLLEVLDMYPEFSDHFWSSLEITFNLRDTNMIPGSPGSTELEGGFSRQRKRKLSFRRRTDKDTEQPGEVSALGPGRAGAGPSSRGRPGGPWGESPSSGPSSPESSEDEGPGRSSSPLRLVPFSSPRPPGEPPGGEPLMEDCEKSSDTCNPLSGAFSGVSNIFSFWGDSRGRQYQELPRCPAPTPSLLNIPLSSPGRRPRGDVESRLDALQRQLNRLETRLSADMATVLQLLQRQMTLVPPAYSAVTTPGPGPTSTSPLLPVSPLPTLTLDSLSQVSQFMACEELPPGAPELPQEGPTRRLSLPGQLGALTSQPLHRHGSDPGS
row,Compound,"hERG current change (%, negative = inhibition) at 10uM [%]"
1,CC(C)Cn1cc(F)c(=O)n(CC(C)C)c1=O,22.9
2,O=C(Cc1ccc([N+](=O)[O-])cc1)N1CCCc2ccccc21,-41.1
3,COc1cccc(NC(=O)CSc2nnc(Cn3cnc([N+](=O)[O-])n3)n2C)c1,-6.71
4,C(=C\c1ccccc1)/CN1CCN(c2ncnc3c2oc2ccccc23)CC1,-53.7
5,Cc1cc(NC(=O)NC(C)(C(F)(F)F)C(F)(F)F)no1,2.83
6,Cc1oc(-c2ccc(Cl)cc2)nc1CN1CCCC(C(=O)NCc2cccnc2)C1 (stereo not drawn),-60.8
7,COc1cc(/C=N/n2cnnc2)ccc1OCCSc1ccc(C)cc1,-5.6
8,CN(C(=O)c1ccc2nccnc2c1)C1CCCCC1,11.3
9,C=C(C)COc1ccc(-c2nc(N)ncc2-c2ccc(Br)cc2)c(O)c1,23.6
10,CC1=C(C(=O)OC(C)C)C(c2ccncc2)n2ncnc2N1 (stereo not drawn),0.568
11,COc1ccccc1/C=C/C(C)=O,13.6
12,CCOC(=O)c1[nH]c(COC(=O)C2CC(=O)N(Cc3ccccc3)C2)c(C(=O)OCC)c1C (stereo not drawn),-17.2
13,O=C(O)c1cc2nc(-c3ccccc3)cc(-c3ccccc3)n2n1,6.39
14,COc1ccc(/C=N/NC(=O)Cc2cc(OC)c(OC)cc2[N+](=O)[O-])cc1,6.28
15,O=C(O)c1ccc(NS(=O)(=O)c2ccc(Cl)c(C(=O)Nc3ccccc3)c2)cc1,8.01
16,Cc1ccc(S(=O)(=O)NNC(=S)Nc2cccc(C)c2C)cc1,-27.7
17,CCOC(=O)CN(C(=O)CSc1nnc(-c2ccncc2)n1CCCOC)c1ccccc1,9.85
18,Cc1cc(C)n(-c2cc(C(C)(C)C)nc3c(-c4ccc(Cl)cc4)cnn23)n1,2.2
19,Cc1[nH]c2ccc(C(=O)NC3CCCC3)cc2c1C,4.71
20,CCn1cc(C(=O)NCC2CCCO2)c(=O)c2cc(F)c(N3CCN(C)CC3)cc21 (stereo not drawn),11.6
21,O=C(COc1ccc(S(=O)(=O)NCc2ccccc2)cc1)N1CCOCC1,-6.06
22,Cc1ccc(NC(=O)Cc2cn3ccsc3n2)nc1,14.3
23,O=C(NNC(=O)C1CCN(S(=O)(=O)c2ccc(Cl)cc2)CC1)c1ccccc1,9.96
24,O=C(Nc1nc(-c2ccccn2)cs1)c1cccc(-n2cnnn2)c1,-5.61

# From article PMC4336329 (PLoS ONE, 2015)
